In the supplement of paper PMC3334620:
In all, about 33,000 sequences were measured (“E-score (-0.5 to 0.5)”: median about -0.056, highest 2% from about 0.38 on). The list shows a part of the results.

target: Stb4 (UniProt P50104); test: PBM E-score (8-mer binding enrichment) (E-score (-0.5 to 0.5)); higher = stronger / more preferred TF binding; most listed sequences are background and not binding sites; conditions: protein concentration: 200 nM; construct: GST-DNA-binding domain
Outline: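 The E-score, a modified Wilcoxon-Mann-Whitney statistic, was computed by the Universal PBM Analysis Suite for every ungapped eight-base word pooled with its reverse complement. Scans behind it were normalised with masliner after bound GST-tagged yeast transcription factors were detected with fluorescent anti-GST. The proteins, at about 100-200 nM, had been applied to universal all-10-mer Agilent arrays made double-stranded by primer extension.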

Sequence | PBM E-score
TGCATCAA | -0.148
GGCGCATA | 0.0322
ATATAAAG | -0.0779
CATGAGAC | -0.0767
CTCTGAAG | -0.139
CAAGACCG | 0.0614
ACTGCCTC | -0.0245
TGGCCTAA | -0.234
AACCGTCT | 0.00908
ATCATCCA | -0.121
CTCAAGCC | 0.0055
CGGTGGAG | 0.121
GAGAGAGC | -0.196
CGGCCGAA | 0.314
AGCCTTAT | -0.103
GGGATCAA | 0.127
GACGGACA | 0.12
ATTATTTC | 0.224
AGGCCGTG | -0.0735
AAGTAATT | 0.108
CACAACGC | -0.00862
CCTCCCAG | -0.265
GAATGCGA | 0.0718
CTATCCAG | 0.0257
AGTAGCTA | 0.0856

Sequence | PBM E-score
GGTAGCAC | 0.0284
GTTTCGGA | 0.43
AGCATACA | -0.143
ATTTCAAA | -0.109
GGTGGGAA | 0.146
CCTCCGCC | 0.11
AATAGCTG | -0.0244
CACGCGCA | -0.126
CGAGATGC | 0.0535
ATCCTTGA | -0.11
AATTTCCG | 0.425
ATATCAGG | -0.241
ACCCTCAA | -0.15
GGGACCCA | 0.131
ATTGTCTC | 0.0102
CGCCATGA | -0.0878
TACTGTAA | -0.101
TGAAACCA | -0.0604
CAACTCGA | -0.205
AGTAGGCG | -0.169
CTATAGTA | 0.0285
ACGACTGA | -0.0836
AGGAGAAT | 0.0566
AGTTGATC | -0.103
ACTGCCAA | -0.0818

Sequence | PBM E-score
AGAATATC | 0.104
ACGAACGA | -0.0896
AAGGTCTC | -0.173
TTCGCAAA | -0.0518
AACCCCTG | -0.123
ATCTAAAC | 0.118
GCAACGAA | -0.162
AGACGTGA | -0.153
AACTGAGC | -0.0204
CCGATAGG | 0.291
ATCAATGG | -0.145
CGTCATGC | -0.169
AGACATGG | -0.121
GTTTGTGA | -0.0209
CATGCGCC | 0.066
CCCAGCGC | -0.0584
AATTGCAA | -0.0324
AATTGATG | 0.0574
ATGACGTC | -0.0614
AACAGGTT | -0.0193
CAATCAGC | -0.164
AGTTCATG | -0.00844
CCCGGGCA | 0.266
CTCGAATC | -0.207
AGACCGGG | 0.155

Sequence | PBM E-score
ACGCAAGG | -0.184
AGCGCTAG | -0.215
CTACCTCA | -0.0102
CATGTCCG | 0.11
CCGGACGA | 0.191
CCTTCAGA | -0.155
CACACGCG | -0.0638
ACCGACTG | 0.199
AACAAAAC | 0.0726
ATAACAGA | -0.0274
CAGTAGGA | -0.0533
AGGGTTGA | 0.0221
AAATCCTT | -0.122
CACCGGTC | -0.0811
TACCGGCA | 0.279
ATTACGAC | -0.0667
GAGTCCCA | 0.116
AGTTAGGG | -0.0805
CCCGTTCC | 0.236
AAACTTAA | 0.0017
GAGATTCC | 0.267
AATCTTCC | 0.249
ATGTTAGG | -0.143
AGAAGTCT | -0.185
CCATTAGA | -0.124

Sequence | PBM E-score
ATCTAATG | 0.0219
CTACATTA | -0.128
CACAAACA | -0.0138
AGAACACC | -0.00556
ACACAAGA | -0.0626
AAAAAGTG | -0.127
ACAAGCAC | 0.0237
GTGTACGA | 0.0346
GCCCAGAC | -0.133
ATAGTGAT | -0.0643
CCTGAAAA | -0.029
CCGGTCGC | 0.0983
AATAAGTA | -0.124
AGATTTGA | -0.0414
GCGCCCTA | -0.0848
GGGGTTCA | -0.16
AGTCCAAC | -0.196
ATCTTTCA | 0.11
AGTCTTGC | -0.171
AATAGGAG | -0.317
GACGCAGC | -0.332
TAGAAAGA | -0.169
AATTGAAG | -0.06
AGAAGCGC | -0.0636
ACTAGGAG | -0.131

Sequence | PBM E-score
ACTCTTAC | -0.129
CGGTCCGA | 0.449
AAGTGTAG | -0.173
AGAACAAC | -0.157
CGACACTA | 0.0541
CATTTATA | -0.0509
GCCGTGGA | 0.081
AAGCCCTT | -0.224
AGGGGACG | -0.135
CATACCCA | -0.102
CTGGTTCA | -0.0813
AAGGCAGA | -0.201
CTCTGGTC | -0.088
GTCTCCAC | -0.145
ACGTACTC | 0.0468
CCCTATAA | -0.0911
CGATCCTC | -0.0188
TCCATAAA | -0.181
AGATAATC | 0.0225
GATCCAGA | -0.0775
CAGCGATA | 0.0297
AATGGTTA | -0.0925
CCACGCCG | 0.0108
ATCGAGAC | 0.00507
AGCCATAT | -0.113

Sequence | PBM E-score
ATCGTGCA | -0.194
CAGGTTCA | -0.296
CTGGACTA | -0.262
CGTGTGAA | -0.061
GCGATCTA | -0.0238
CCAAGGAG | -0.0516
ACGGACAC | 0.0209
CTCCTCGA | -0.284
CTTCGCGC | 0.0416
CAACACGG | 0.135
CCAACTAC | -0.00781
TATTAATA | 0.15
CCATCGAG | -0.0968
CCGCTCAG | -0.0134
AAGATTCA | 0.0118
AAGACTAT | -0.184
CAGCCTAA | -0.325
AAGGGACT | -0.194
GACACAGA | -0.0692
ACTCTCTC | -0.0502
ATGCGTTG | -0.0732
ACTGTTTG | -0.343
AGTATACA | -0.146
GACTTAAA | -0.0184
ACTTTGGA | -0.185

Sequence | PBM E-score
CTGGGAAC | -0.0256
GCATCCAC | -0.0227
GGTTTAAC | 0.00403
CAACATAC | -0.00716
GAGTGCGA | -0.0302
CTTAAGCC | 0.00161
ACTTCACA | -0.0964
CCCAACGC | -0.166
CAGAGCAG | -0.134
ACAAGAAT | -0.145
AATTGTAC | 0.00703
ACGGCCCG | 0.284
GACACCTA | -0.0375
GTTCATAA | -0.109
AATCTACC | 0.26
GTCTGTTA | 0.0512
ACTGTCCG | 0.183
TACAACAA | -0.072
TGCGTACA | -0.0717
CGCTGAGA | -0.109
AACCTTAC | 0.0238
CTGTGGTA | -0.0522
GCCAGAAA | -0.0452
CCATATAC | -0.0759
CAGCAGTC | -0.156

Sequence | PBM E-score
AGGGCGGC | -0.073
ACACTTCT | -0.0789
ATTGATAG | -0.0914
CTATGAAA | -0.0999
ATATAACA | 0.169
CCTCGTTC | -0.0536
TATTACGA | 0.0297
ATCAAACA | -0.0992
AATCCCAA | -0.207
ATATTGAT | -0.0201
CGGGGCCA | 0.22
CACACCTA | -0.039
ACGCATAT | -0.175
CAATTATG | 0.00751
ACTGGCAT | -0.297
AGGTACTG | -0.0959
GGGACCAC | 0.0431
AAATTAAC | 0.13
AGCCGATG | 0.321
ACGGAGAT | 0.138
ATTAGACA | -0.248
TTTCGAAA | -0.307
ACCGAATC | 0.357
ACAAGCGC | 0.0421
CTGCCACC | -0.142

Sequence | PBM E-score
CATGATAA | -0.105
CGGCTCAG | 0.284
TGTAGACA | -0.184
ACGCATAG | -0.101
ATCGTGTA | -0.0401
CTCGGAAC | 0.485
CTGTTCTA | -0.155
ACGCATCT | -0.00371
GCATGTCC | -0.165
CAGTCGCA | -0.283
CCCGGGTC | 0.32
AGCGCGGC | 0.0405
CGGGTAAA | 0.424
CTACTCTA | -0.0966
ATTTGGTA | -0.0379
CGATTAAA | 0.178
GATCTGAC | 0.0187
ATTTTTGA | -0.158
AAGTGGTA | -0.0829
CCTCACCA | -0.19
AAGAAATG | -0.0362
AGGGCTCG | 0.104
ACCGAGGG | 0.27
GTCGCTAA | 0.0252
ATATTATG | -0.0655

Sequence | PBM E-score
ATATGCAA | 0.00485
AACTATTA | 0.0616
CTGGTCCC | -0.0143
CCAACGAG | -0.139
ACTTAATG | -0.0296
AGCGTTCC | 0.126
CTATTGAG | -0.21
GATTAATC | 0.358
CATCCTCG | 0.178
AATGTGCA | -0.18
AGTGAGCG | -0.236
GTAAATAC | -0.0115
AAGCAAGC | -0.0717
GGAGTGCA | 0.134
TTGCGAAA | 0.116
AAGTTTCC | 0.151
GAAAAGTA | -0.0737
AGCATGGG | -0.212
GAATGAGA | 0.114
GATCTGCC | 0.0843
AAAGAATC | -0.104
ACAGCAAT | -0.122
GAGCAGCA | -0.0223
CCGTTCCC | 0.273
ATACGATC | 0.0197

Sequence | PBM E-score
AGAGCTAG | -0.164
CTAGAGGA | -0.154
GTAGTCAC | -0.16
AAGGGGTG | -0.286
ACTTCGAT | -0.117
CGCTACTC | 0.0414
AGTGTAGC | 0.0345
GCCTGCAA | -0.18
CTTAAACC | -0.16
GACAATCA | 0.0553
CCTGTTTA | 0.0272
CACGTGGC | -0.357
CGAGTAAG | 0.176
GGACCACC | -0.0377
GGCCCACA | -0.0575
ACAAGTGG | -0.283
CGATGAAC | 0.0607
AGGCGGTC | -0.135
CCTCGCGA | -0.00934
ATCCGTAC | 0.348
ACATGCAA | -0.204
CTTTCTTC | 0.0646
CGATGTAG | -0.145
AACAAATT | -0.00925
GGAACATA | 0.193

Sequence | PBM E-score
CTAACGGA | 0.191
AGAAATAC | -0.086
AGGATACG | -0.23
AGCTAGTA | -0.0622
CTTCAAAC | -0.0775
GCGATGAA | -0.0956
AGCTAGCT | -0.303
AGTATTTA | -0.164
CTGAAACA | 0.0153
ATGGTAGA | -0.105
AACACGGT | 0.0299
GAGGAGGC | -0.196
TAATAACA | 0.0486
GCCATGTA | -0.0485
ACGATCCA | -0.0732
CAGTAATC | -0.225
AGACAAAG | -0.166
AACTTTAT | -0.0518
CGAATGAG | 0.191
ATTTTACG | 0.128
CCTCTAAC | 0.0421
GGCTAAAA | 0.143
ACTGACAT | -0.155
ATAGATCC | 0.146
AGACGAGA | -0.134

Sequence | PBM E-score
GCAATGCC | 0.138
CCACGTAA | -0.236
ATATTCAA | 0.066
GGACAAGA | -0.0939
ACCGGATC | 0.353
GTCCCCCA | -0.144
CCTAAGAA | -0.272
CCACTCCG | 0.146
CTTAGTCA | -0.252
AAGCTACG | -0.208
GTATTGGA | -0.0868
GATTGAGA | -0.0336
AAGGTTGG | -0.024
AATTAGAT | -0.0353
GCATCGCA | -0.193
GCCGAAAC | 0.397
AACGATAC | -0.196
GATAGTCC | -0.00459
TAGTTTAA | -0.0938
